Measured values: PMC11995724, “Antibiotic target discovery by integrated phenotypic and activity-based profiling of electrophilic fragments” (Cell chemical biology, 2025)
In all, about 3,200 compounds went through this assay and about 75 (2%) showed an effect of 50% or more. The list shows a part of the results.

tested on: T1, S. aureus MSSA476; design: species or system S. aureus MSSA476 (TSB) or V. cholerae SAD30 (LB); 384-well bacterial growth screen at 25 uM, OD600 relative to DMSO control; details: relative growth, OD600, TSB; 25 µM; inhibitor
T1 construct: MSSA476

SMILES | % of control remaining [%]
C=CC(=O)N(C)C1CS(=O)(=O)C1 [1-E03, N-(1,1-dioxo-1lambda6-thietan-3-yl)-N-methylprop-2-enamide] | 105.846
C=CC(=O)NCCNC(=O)C1CC12CCSCC2 (stereo not shown) [2-O06, N-[2-({6-thiaspiro[2.5]octan-1-yl}formamido)ethyl]prop-2-enamide] | 98.5205
C=CC(=O)Nc1ccnn1C(C)C [2-O07, N-[1-(propan-2-yl)-1H-pyrazol-5-yl]prop-2-enamide] | 112.446
C=CC(=O)N1CCC=C(c2cn(C(C)C)nn2)CC1 [3-D19, 1-{4-[1-(propan-2-yl)-1H-1,2,3-triazol-4-yl]-2,3,6,7-tetrahydro-1H-azepin-1-yl}prop-2-en-1-one] | 103.788
COc1cc(C=C(C#N)C(=O)NC2CCCCC2)cc(Cl)c1O [8-H21, 3-(3-chloro-4-hydroxy-5-methoxyphenyl)-2-cyano-N-cyclohexylprop-2-enamide] | 104.564
N#CC(=Cc1ccccc1)C(=O)Nc1nncs1 [8-K09, 2-cyano-3-phenyl-N-(1,3,4-thiadiazol-2-yl)prop-2-enamide] | 97.2614
CC(Cl)C(=O)NCCCc1c[nH]c2ccc(F)cc12 (stereo not shown) [7-J09, 2-chloro-N-[3-(5-fluoro-1H-indol-3-yl)propyl]propanamide] | 96.7033
O=C(CCl)NCC1(c2ccccc2)CCC1 [4-O19, 2-chloro-N-[(1-phenylcyclobutyl)methyl]acetamide] | 89.9476
C=CC(=O)NCc1cn(C)nc1-c1ccccn1 [2-H03, N-{[1-methyl-3-(pyridin-2-yl)-1H-pyrazol-4-yl]methyl}prop-2-enamide] | 107.92
O=C(CCl)N(CC1CCCO1)C1CCS(=O)(=O)C1 (stereo not shown) [5-N16, 2-chloro-N-(1,1-dioxo-1lambda6-thiolan-3-yl)-N-[(oxolan-2-yl)methyl]acetamide] | 91.0747
COCCNC(=O)C(C#N)=Cc1cccc(O)c1 [9-H08, 2-cyano-3-(3-hydroxyphenyl)-N-(2-methoxyethyl)prop-2-enamide] | 102.472
C=CC(=O)N1CCC(C(=O)NCCC2(O)CCCOC2)CC1 (stereo not shown) [2-B04, N-[2-(3-hydroxyoxan-3-yl)ethyl]-1-(prop-2-enoyl)piperidine-4-carboxamide] | 110.009
O=C(CCl)c1ccc(CC(=O)N2CCOCC2)s1 [10-H06, 2-chloro-1-{5-[2-(morpholin-4-yl)-2-oxoethyl]thiophen-2-yl}ethan-1-one] | 118.75
CC1CCc2c(sc(NC(=O)CCl)c2C(=O)OC(C)C)C1 (stereo not shown) [4-D07, propan-2-yl 2-(2-chloroacetamido)-6-methyl-4,5,6,7-tetrahydro-1-benzothiophene-3-carboxylate] | 128.061
Cc1c(C=C(C#N)C(=O)Nc2nccs2)cc(C#N)n1C [8-B18, 2-cyano-3-(5-cyano-1,2-dimethyl-1H-pyrrol-3-yl)-N-(1,3-thiazol-2-yl)prop-2-enamide] | 86.971
O=C(CCl)N1CCC1c1cccc(F)c1 (stereo not shown) [5-K10, 2-chloro-1-[2-(3-fluorophenyl)azetidin-1-yl]ethan-1-one] | 105.647
C=CC(=O)NCCC(=O)N1CCc2cc(C)c([N+](=O)[O-])cc21 [3-F08, N-[3-(5-methyl-6-nitro-2,3-dihydro-1H-indol-1-yl)-3-oxopropyl]prop-2-enamide] | 91.2495
CC(Cl)C(=O)N(Cc1ccccc1)Cc1ccccc1 (stereo not shown) [5-K19, N,N-dibenzyl-2-chloropropanamide] | 103.097
O=C(CCl)N1c2ccc(F)cc2NC(=O)C12CCC2 [5-K09, 1'-(2-chloroacetyl)-6'-fluoro-3',4'-dihydro-1'H-spiro[cyclobutane-1,2'-quinoxalin]-3'-one] | 107.468
O=C(CCl)NCc1ccccc1C(F)(F)F [6-K10, 2-chloro-N-{[2-(trifluoromethyl)phenyl]methyl}acetamide] | 112.341
COC(=O)c1c(-c2ccccc2Cl)csc1NC(=O)CCl [4-F07, methyl 2-(2-chloroacetamido)-4-(2-chlorophenyl)thiophene-3-carboxylate] | 109.767
C=CC(=O)NCCc1ccn(-c2ccc(F)cc2)n1 [2-P03, N-{2-[1-(4-fluorophenyl)-1H-pyrazol-3-yl]ethyl}prop-2-enamide] | 95.3873
C=CC(=O)Nc1ccc(C(=O)N2CCC(C)(C)S(=O)(=O)CC2)cc1 [3-E04, N-[4-(7,7-dimethyl-1,1-dioxo-1lambda6,4-thiazepane-4-carbonyl)phenyl]prop-2-enamide] | 106.226
CSc1cc(C(=O)CCl)ccc1NC(C)=O [10-H08, N-[4-(2-chloroacetyl)-2-(methylsulfanyl)phenyl]acetamide] | 79.6875
C=CC(=O)Nc1ccc(C(=O)NC2CCN(S(C)(=O)=O)CC2)cc1 [2-M21, N-(1-methanesulfonylpiperidin-4-yl)-4-(prop-2-enamido)benzamide] | 120.801
C=CC(=O)N1CCC(C(=O)NCc2nnc(C(C)C)n2C)CC1 [3-C16, N-{[4-methyl-5-(propan-2-yl)-4H-1,2,4-triazol-3-yl]methyl}-1-(prop-2-enoyl)piperidine-4-carboxamide] | 77.6665
N#CC(=Cc1ccc(Cl)cc1)C(=O)Nc1nccs1 [8-C11, 3-(4-chlorophenyl)-2-cyano-N-(1,3-thiazol-2-yl)prop-2-enamide] | 98.5892
CC1CC1c1ccc(C=C(C#N)C(=O)Nc2ccc(C(=O)O)cc2)o1 (stereo not shown) [9-G16, 4-{2-cyano-3-[5-(2-methylcyclopropyl)furan-2-yl]prop-2-enamido}benzoic acid] | 68.3146
